Source: the supplement of paper PMC4466236
Whole data set: some 33,000 sequences, median “E-score (dimensionless, -0.5 to 0.5)” near -0.058, cut for the highest 2% near 0.35. Some of the results follow.

Test system: MvaT
Assay: PBM 8-mer E-score (mean of HK and ME arrays) (E-score (dimensionless, -0.5 to 0.5)); higher = stronger relative binding preference; most listed sequences are background and not binding sites
Procedure, shortened: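 Full-length P. aeruginosa MvaT, with glutathione S-transferase fused to its N-terminus (cloned into pTH6838 by isothermal assembly), was tested by protein binding microarray using a previously described protocol. Two universal double-stranded 60-mer arrays (ME and HK) were used, each with a constant 25-mer primer region and a variable 35-mer region covering all 8-mers. The rank-based 8-mer E-score (-0.5 to 0.5) is the mean of the two arrays, parsed with a custom Python script.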

Sequence	PBM 8-mer E-score
CTTGCGAA	0.077
ACGGAAAT	0.193
GAACGCAA	-0.0427
ACCCAGGT	-0.117
AGGTTAGG	-0.145
AACAAAAA	0.239
TAGCACCA	-0.207
GCGAGTCA	-0.112
CGCAACTC	0.0568
CAAGGCTA	-0.232
ACATCCTA	-0.0176
CTCGCGCC	-0.261
AGCGACTA	-0.106
AATGCGTA	0.118
GTGCGTGA	-0.0451
ACTCTTTA	0.22
CATGCAAC	0.143
AAAAGACC	-0.0443
CCAGCGAC	-0.0525
CTAATAAC	0.326
AGTATAGG	0.0335
CTTGCATC	-0.0339
ATGCCGCC	-0.131
AAACCATC	0.0503
AACCGACG	-0.000494

Sequence	PBM 8-mer E-score
CCCCAATA	0.0237
GAGTTGGC	-0.063
CCGGAAGA	-0.2
AGTAAGGC	-0.102
ACCACGCA	-0.162
CATACGCC	-0.119
AGTGACTC	-0.215
AGTTCTAA	0.195
AGGACGTG	-0.0594
GTTCTCGA	-0.0824
AATTAATT	0.469
CTAGTGTC	-0.0643
CTGGATAA	0.125
ACTTATGA	0.248
GCTTTTTA	0.202
ACGTGAGA	-0.0259
AAAGGTCC	-0.197
ACCTTGGA	-0.184
AGAGAGTG	-0.0094
GTTCGATA	0.111
TAAGTCGA	0.0582
ATCCGGGC	-0.207
AATCCCCG	-0.164
AGGCCCCC	-0.324
ACACCTGG	-0.191

Sequence	PBM 8-mer E-score
CGATGGGA	-0.232
CCAGGGAA	-0.264
GTGTCACA	0.0862
TGGGTTAA	0.271
ACGTTACC	0.0225
GGTCAATA	0.0589
ATGGTTCG	-0.129
GAAGGTCC	-0.296
CACTGTGG	-0.229
GCACATCA	-0.0667
TAGACTAA	0.172
AGGAGATG	-0.137
GCAGCAGC	-0.158
ACGTACAG	-0.0779
ACGACGCG	0.00215
GTTCCAGA	-0.0607
ATTCAATC	0.128
CGTTGATA	0.233
GGGCCAAA	-0.175
AACACGCG	-0.00712
AGCGTAAA	0.129
ATGCTAAA	0.062
CAAAAATC	0.0508
CCACAGCA	0.0585
ACCGCAAT	0.0257

Sequence	PBM 8-mer E-score
CATCTTGC	0.00473
GGAGCACA	-0.109
AGCGCTCC	-0.312
ATGGTGTA	0.227
GGTGCGTA	-0.221
AAAATTTG	0.221
CATATGCC	0.21
GCGGATCA	-0.185
TCTCACCA	-0.0395
AGATAACT	0.173
ATTTGCCA	0.182
CGACAGGC	-0.265
ACGGGTAG	-0.17
ACCTCCAG	-0.269
GTAATTCA	0.191
GCCATGAC	-0.228
AAAAGCGT	0.0434
AAGCTATC	-0.0888
ATGTACGA	0.0878
CAGGAACG	-0.0449
ATCAGTGC	0.0617
CTGAGAGA	-0.152
ATGAAGTG	0.0372
GTAACCGA	0.0603
GGGTAAAC	-0.045

Sequence	PBM 8-mer E-score
GAACAGTA	0.15
ACCAGGGT	-0.286
CAGAATGG	-0.147
ACCTTGAG	-0.171
CCGGCCCC	-0.331
GTTATACA	0.281
GTGAATCA	-0.0866
AACTGTAC	0.096
AAATGTGT	0.227
AGACGTCT	0.112
AGCGAATA	0.118
TCAATGCA	0.0828
CTGATGTA	0.00103
CGCACTGC	0.0373
AAATTTAC	0.11
GAAAAACC	0.0673
CTCGGTGC	-0.135
AGCTCAGC	-0.254
AACCATCG	-0.124
ACGCAGGG	-0.289
AAGCGGGG	-0.0499
CGTTTAAG	0.0815
TACGCCGA	-0.161
CACAGCTG	-0.0633
CTCACGGC	-0.215

Sequence	PBM 8-mer E-score
ATTGTACC	0.171
GGTACCGA	-0.173
CAGTTAGG	0.0169
AGTCTTAG	0.0244
AAATAGGG	0.0471
GGCACTTA	0.0393
CGGGGGCA	-0.297
CAACCAAG	-0.139
CTCGAAAA	-0.0277
CAAAAACG	-0.0419
CAGACCCC	-0.251
ACCTCTGG	-0.221
AAACCCTA	-0.0164
AGTAACAG	0.018
GACGAATC	-0.225
AGATACCC	-0.0322
CGCTCATA	-0.0347
AAGCCCGG	-0.292
ACATGAGC	8.08e-05
GAACGATA	-0.00908
GGATCACA	-0.107
TAGAGAGA	0.00267
CCCCAGGG	-0.277
ACAAATCA	0.223
AGAGATGG	-0.141

Sequence	PBM 8-mer E-score
GTGATAAC	0.209
ATGCCCAC	-0.0414
CGGTTCTA	-0.18
CTCCAACC	-0.16
CACCGCCA	-0.154
GCGTCGCC	-0.203
CAATTGCC	0.0531
AGTTCGAG	0.11
AAATTCAC	0.0554
AACGTCAC	-0.00265
GGGCGCAA	-0.235
GGATTATA	0.32
GATAAATA	0.382
GGCTAAAC	-0.00468
TGGTTGAA	-0.0872
CACCGAAG	-0.124
ATGATCCC	-0.0502
ACGGGGAG	-0.241
CGTAACAG	-0.0868
ATTCAAAG	0.102
CGCGGGTC	-0.255
CGCAAGGC	-0.213
ATCCTACA	-0.118
CGGAGCAC	-0.212
ATCATGCG	-0.0902

Sequence	PBM 8-mer E-score
AACTCCGC	0.0258
CAGACCTA	-0.191
CAACGACA	-0.0648
CCTTAGTA	0.0202
AGTCTGGG	-0.0379
AACACGGC	-0.0354
AACTCTTG	0.017
AGCAATGC	-0.145
AGTCGATA	-0.0709
AGATGGGA	0.0236
AGACAGAT	0.0471
ATAAGGCC	0.083
GATCAAAA	0.0613
AAACGAAG	0.0779
CGACGTTC	-0.218
CTCTGCAA	-0.167
ATTCCTAA	0.0582
TGTCATAA	0.173
GCGACTCC	-0.217
GTAAAAAA	0.137
TGGCTAAA	0.0382
GTGCGCCA	-0.027
ATACGCTA	0.178
AGACGGAG	-0.121
GATATGAA	0.156

Sequence	PBM 8-mer E-score
CACAGCGA	-0.00654
CCGTTACC	-0.161
GTCGAATA	0.112
CATAATGG	0.178
ATCTTAGA	0.00161
ATTATGTA	0.377
GTGACGCA	-0.144
AAGTATAC	0.338
ACGTCTGG	-0.0925
ACTCCCCC	-0.166
ACTTGAAC	0.184
CACTAATG	0.166
ACCAGTCT	-0.0601
ACTCTTCA	-0.0953
ACCGGTTG	-0.141
CGTCTCTC	-0.243
GTATCTAA	0.219
TCCGTACA	0.00932
AGGCAGTA	0.106
TAACGAAA	0.297
GAACATAC	0.036
ACAAAAAC	0.131
GGCAACAC	-0.137
GACTACAA	0.0701
ACGAGCGA	-0.117

Sequence	PBM 8-mer E-score
ATCTCGAC	0.0844
CGCAGATA	0.00677
GAATGGCA	-0.00364
CAGGAGGA	-0.275
ACAGTGCG	0.0644
GAGCGATA	-0.0344
ACTCCTCG	-0.125
CTAGTTGC	0.155
GCGCACAA	-0.00512
AAGAATAT	0.316
ACGGTGTA	-0.12
CGTCCCCC	-0.209
AGTCGTTA	0.0888
CCTTGTTA	-0.019
ATACCATC	0.0279
ATCTGATG	0.0415
GCGGAAAC	-0.123
ATAATCGG	0.122
GCATGTGA	-0.202
CGACAGCA	-0.183
GACATGCA	-0.118
ATGGGTCG	-0.271
GTCGCATA	-0.0196
ACCTGAGT	-0.0838
AGGCCTTC	-0.249

Sequence	PBM 8-mer E-score
CGACCTTC	-0.138
GATCTCGA	-0.173
ACTGGCAG	-0.263
AGATACAG	-0.0511
ACACGCAG	-0.19
GGGATAAA	0.157
GGTCAAAC	-0.0373
CCCTCGCA	-0.13
GCAACTGA	-0.105
GCTCAGAA	-0.154
GTCGGAAC	-0.121
AGGATCCC	-0.274
GCTCCTAA	-0.127
ACGCCTGC	-0.235
GCATCCGC	-0.291
ACTTTAAG	0.254
CCTTTTGC	-0.114
TATTAGGA	0.247
AAACAGAA	0.187
CCTCACTA	-0.21
ATCGGCCC	-0.0799
CGGCGTAA	-0.0379
CTCATACA	-0.105
AATTCCAA	0.206
CTTCCAGA	-0.133

Sequence	PBM 8-mer E-score
AAGCAATG	-0.0923
GCGACGAA	0.145
ACGTAAAA	0.158
CCTTTAAA	0.211
AAGAGATT	0.0773
TAAGGCTA	0.0276
CCGCACGC	-0.31
ACCTTACA	0.0995
CCCTTGTC	-0.221
GGAGATAA	0.0601
ATAGTGCC	-0.0299
AGGAACCG	-0.283
CACGCGAC	-0.198
CGCGCATA	0.113
AGGACGAT	-0.107
GGACGGTA	-0.175
CCTCTGGA	-0.172
ACATAAGG	0.00773
GCCTGTCA	-0.21
ATCGGAAT	0.0812
AGTTGAAG	0.243
CCGCAGCC	-0.345
CACATAAC	0.209
ACACCCTA	0.0401
AAGCAACC	-0.0129

Sequence	PBM 8-mer E-score
AACTGACG	0.0522
CCGTTCGC	-0.222
ATCCGACG	-0.0239
AGAGCGCT	-0.092
GGTTACTA	0.176
AACACATC	0.0583
ACGCTAAT	0.174
CAGGACGG	-0.141
ATCTCAAT	0.0631
ACAGTGCT	-0.105
ACGAACTC	-0.0732
ATATGTCG	0.22
ATTTAAAC	0.398
AGTCACTG	-0.0346
CTCCTTAA	-0.0285
GGCTGGAC	-0.26
TAACCTTA	0.0355
AATATACA	0.413
GGTGGTGA	-0.106
CGTGTTCA	-0.0519
TTGGCAAA	0.0635
ACCATGAT	-0.0366
CTAGTCAA	-0.00516
GGGTAGAC	-0.152
CGGCCAAG	-0.206

Sequence	PBM 8-mer E-score
ATCTCACC	0.0166
ACCTTGAC	-0.148
ACATCCTC	-0.0219
CTCTTGCA	-0.0689
TAATGGCA	0.181
AGTCTCCA	-0.108
CTCCGCGA	-0.173
CGCTCGCC	-0.25
CCGAATCC	-0.188
CCGATGAG	-0.235
CCATTGCC	-0.0399
GCTCAAGA	-0.189
CTGTATTC	0.0463
GGTGTGTA	0.0501
CTATCCAC	-0.0769
AGCCCTAA	-0.24
ACACACGA	-0.0249
CGACTATA	0.241
ATACTGCA	0.213
